According to PubChem BioAssay AID485294 (National Center for Advancing Translational Sciences (NCATS), 2010):
The campaign covered roughly 370,000 compounds. About 150 (0.041%) were called active. Inconclusive results, whose numbers are uncertain, are shown with a selection of clear calls. Calls come from the whole dose curve; as a rule, active = well fitted inhibition curve with a large enough effect; inconclusive = small, poorly fitted or top-dose-only effect; inactive = flat fitted curve, though single readings scatter. No potency is given beside an inconclusive call; the fits are too rough.

Each compound was assayed against Beta-lactamase (Escherichia coli (strain K12)) (UniProt P00811) (assay: qHTS Inhibitors of AmpC Beta-Lactamase (assay with detergent)). Conditions: AmpC hydrolysis of nitrocefin, absorbance 480 nm, 0.01% Triton; activity change, negative = inhibition: at 114 µM (top of the series).
Sequence of UniProt P00811 (P00811 whole entry, looked up): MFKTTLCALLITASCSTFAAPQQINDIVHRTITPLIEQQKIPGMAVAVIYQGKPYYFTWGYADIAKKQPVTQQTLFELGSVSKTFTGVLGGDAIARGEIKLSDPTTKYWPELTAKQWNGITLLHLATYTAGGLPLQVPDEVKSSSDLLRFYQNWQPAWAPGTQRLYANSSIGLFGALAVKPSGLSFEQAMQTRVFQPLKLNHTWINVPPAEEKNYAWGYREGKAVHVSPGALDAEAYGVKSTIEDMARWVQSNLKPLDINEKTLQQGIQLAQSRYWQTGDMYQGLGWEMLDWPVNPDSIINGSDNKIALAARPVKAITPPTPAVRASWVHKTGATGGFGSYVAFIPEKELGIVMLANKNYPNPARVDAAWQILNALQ
Procedure, shortened: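 20 mM phosphate pH 7.0 + 0.01% (detergent screen) or 0.0001% Triton X-100; 5.3 nM AmpC reagent; cpd preinc 15 min RT; nitrocefin (800 uM stock) to start; A480 q20 s × 4 min; Activity was normalised to no-enzyme and no-compound control wells.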
Note: nearly all actives have a fitted effect of over 25% in size.
Potency is the fitted concentration of half-maximal effect; tags give direction and shape of the fitted curve.
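Throughout, for activity change, negative = inhibition: 0% = no-compound wells and -100% = no-enzyme wells.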

Row | Compound | activity change, negative = inhibition | Potency
1 | CCOC(=O)c1c(C)[nH]c(C)c1S(=O)(=O)N1CCCC(C(=O)Nc2ccccc2OCC)C1 (centres undefined) | inactive: 4.35% | –
2 | CC(=O)NC(=S)c1c(N)n(Cc2ccccc2)c(=O)n(C)c1=O | inactive: 5.05% | –
3 | O=C(NNC1CC(=O)N(c2cccc(Cl)c2)C1=O)c1cccnc1 (centres undefined) | – | inconclusive [inhibitor, full curve, poor fit]
4 | Cc1cc(Cl)c2oc(C(=O)N(C)Cc3nccn3C)c(C)c2c1 | inactive: -10.7% | –
5 | COc1cccc(/C=N/NC(=O)c2cccc3ccccc23)c1 | – | inconclusive [inhibitor, full curve, poor fit]
6 | O=C(COC(=O)c1cc([N+](=O)[O-])ccc1N1CCOCC1)Nc1ncc(Cl)cc1Cl | inactive: -12.1% | –
7 | CCC(C)C1C(C#N)=C(N)Oc2n[nH]c(C)c21 (centres undefined) | – | inconclusive [inhibitor, full curve]
8 | CC1(c2ccc(OC(F)F)cc2)NC(=O)N(/N=C/c2c(O)ccc3ccccc23)C1=O (centres undefined) | inactive: 5.85% | –
9 | COc1ccc(S(=O)(=O)Oc2ccccc2C(N)=O)cc1 | – | inconclusive [inhibitor, full curve, poor fit]
10 | COCCNC(=O)c1cccc(OC2CCN(Cc3ccccc3OCCO)CC2)c1 | – | inconclusive [inhibitor, partial curve, poor fit]
11 | O=C(NCCCNC(=O)c1ccccn1)c1ccc(Cl)cc1 | inactive: -10.4% | –
12 | CC1CCCC(C)N1C(=O)Cn1c(=O)sc2ccccc21 (centres undefined) | – | inconclusive [inhibitor, full curve, poor fit]
13 | O=C(Nc1ccc(F)cc1F)N1CCC(c2nc3ccccc3o2)CC1 | inactive: 3.64% | –
14 | CCOc1ccc(-c2nonc2NC(=O)c2oc3c(C)c(C)ccc3c2C)cc1OCC | inactive: -1.53% | –
15 | O=C(OCCOCCN=C1NS(=O)(=O)c2ccccc21)c1ccncc1 | – | inconclusive [inhibitor, partial curve]
16 | CCOc1ccccc1NC(=O)c1cccc(NC(=O)C(C)C)c1 | – | inconclusive [inhibitor, full curve, poor fit]
17 | Cc1ccc(OCC(=O)N2CCCCCC2)c(C)c1 | – | inconclusive [inhibitor, full curve, poor fit]
18 | Cc1ccnc(NC(=O)C2CCC(CNc3c(N4CCCC4)c(=O)c3=O)CC2)c1 (centres undefined) | – | inconclusive [inhibitor, full curve]
19 | Cc1ccc(-n2nc(C)c(C(=O)NCCCN3CCN(c4ccc(F)cc4)CC3)c2-n2cccc2)cc1 | – | inconclusive [inhibitor, single point]
20 | C=C(C)COc1ccc(-c2ncncc2-c2ccc(Cl)cc2)c(O)c1 | inactive: -6.77% | –
21 | CC(C)(C)OC(=O)C1C(=O)CC(C)(O)C(C(=O)OC(C)(C)C)C1c1cccnc1 (centres undefined) | inactive: -5.53% | –
22 | O=C(NCc1ccco1)C1CCN(C(=O)N2CCOc3ccccc32)CC1 | inactive: 17.1% | –
23 | O=C(NCCO)/C(=C/c1ccc(Br)cc1)NC(=O)c1cccs1 | inactive: 0.531% | –

Row | Compound | activity change, negative = inhibition | Potency
24 | COc1ccc(CN2C(=O)NC(=O)/C(=C\c3ccc(OC)c(OC)c3OC)C2=O)cc1 | – | inconclusive [inhibitor, partial curve]
25 | O=C(COc1ccccc1)Nc1ncccn1 | – | inconclusive [inhibitor, full curve, poor fit]
26 | N#Cc1ccc2c(c1)C[C@]1(CCCCN3C(=O)c4ccccc4C3=O)OC3=C(C(=O)OC4(CCCCC4)C3)C2O1 | – | inconclusive [inhibitor, single point]
27 | COC(=O)CSc1nnc(-c2cccnc2)n1-c1cc(OC)cc(OC)c1 | – | inconclusive [inhibitor, full curve, poor fit]
28 | Cc1ccc(Cn2ccc(NC(=O)c3cc(-c4ccccc4)on3)n2)cc1 | – | inconclusive [inhibitor, single point]
29 | COc1ccc(NC(=S)NCC(O)c2ccccc2)c(OC)c1 (centres undefined) | – | inconclusive [inhibitor, single point]
30 | COc1ccc(NC(=S)N2CCN(C/C=C/c3ccccc3)CC2)cc1OC | – | inconclusive [inhibitor, full curve]
31 | Nn1c(SCC(=O)NCCC2=CCCCC2)nnc1C1CCCCC1 | – | inconclusive [inhibitor, full curve, poor fit]
32 | CCOC(=O)N(CC)OC(=O)Nc1ccc(Cl)cc1 | – | inconclusive [inhibitor, full curve, poor fit]
33 | CCOc1cc(C(=O)N(C)CC(=O)Nc2cccc(F)c2)ccc1OCC(=O)N1CCOCC1 | – | inconclusive [inhibitor, full curve, poor fit]
34 | Cc1ccc(/C=N/NC(=O)Cn2cncn2)cc1 | – | inconclusive [inhibitor, single point]
35 | Cc1ccc(S(=O)(=O)C2(C(=O)O)CCCC2)cc1C | – | inconclusive [inhibitor, partial curve, poor fit]
36 | Cc1occc1C(=O)NC1CCCCCC1 | – | inconclusive [inhibitor, partial curve, poor fit]
37 | Fc1ccccc1CCNCc1cccc2ccccc12 | inactive: 6.35% | –
38 | CCn1c(=O)c2c3c(sc2n2c(=S)[nH]nc12)CCC3 | – | inconclusive [inhibitor, full curve, poor fit]
39 | O=C(O)CCc1ccc(-c2cccs2)o1 | inactive: 1.94% | –
40 | CCc1cc(=O)oc2c(CN3CCCC3)c(O)c(Cl)cc12 | – | inconclusive [inhibitor, full curve, poor fit]
41 | CCOc1ccc(C/C(N)=N/n2cnnc2)cc1 | – | inconclusive [inhibitor, full curve, poor fit]
42 | COCCCNC(=O)CSC1=Nc2ccccc2C2=NC(CCC(=O)NCc3ccccc3OC)C(=O)N12 (centres undefined) | inactive: -8.31% | –
43 | NS(=O)(=O)c1ccc(CCNC(=O)CN2CCN(c3ccccc3O)CC2)cc1 | – | inconclusive [inhibitor, partial curve, poor fit]
44 | NNC(=O)c1sccc1OCc1ccc(Cl)cc1Cl | – | inconclusive [inhibitor, partial curve, poor fit]
45 | O=S(=O)(Nc1cccc(-c2ccc(N3CCCC3)nn2)c1)c1ccccc1C(F)(F)F | inactive: -2.5% | –
46 | O=C(NCc1ccccn1)Nc1ccc(Br)cc1 | inactive: -4.26% | –

Row | Compound | activity change, negative = inhibition | Potency
47 | Cc1ccc(NC(=O)CCS(=O)(=O)c2ccccc2)cc1S(=O)(=O)N1CCCCCC1 | – | inconclusive [inhibitor, partial curve, poor fit]
48 | CN(C)/C=C1/C=C(C=O)OC1=O | inactive: 5.72% | –
49 | N#C/C(=C\c1cn(Cc2cccc(F)c2)c2ccccc12)C(=O)NCc1ccco1 | – | inconclusive [inhibitor, full curve, poor fit]
50 | O=C(O)CSc1nnc(Cn2nnc3ccccc32)n1CCc1ccccc1 | – | inconclusive [inhibitor, full curve, poor fit]
51 | Cc1ccc(SCCN2CCC(C)CCC2=O)cc1 (centres undefined) | inactive: -9.95% | –
52 | COc1cccc(C2CC(c3cccc(OC)c3)n3nc(N)nc3N2)c1 (centres undefined) | – | inconclusive [inhibitor, full curve, poor fit]
53 | CCCS(=O)(=O)N1CCCC(C(=O)Oc2ccc(OC)cc2)C1 (centres undefined) | – | inconclusive [inhibitor, full curve, poor fit]
54 | c1ccc(-c2nn3c(C4CCCCC4)nnc3s2)nc1 | – | inconclusive [inhibitor, full curve, poor fit]
55 | O=C1Nc2ccc(Br)cc2C(c2ccccc2Cl)=NC1O (centres undefined) | – | inconclusive [inhibitor, partial curve, poor fit]
56 | Cc1cc(S(=O)(=O)N2CCC3(CC2)OCCN3S(=O)(=O)c2cccs2)ccc1F | – | inconclusive [inhibitor, partial curve, poor fit]
57 | COC(=O)c1ccc(NC(=S)NC(=O)c2c(Cl)cnn2C)cc1 | inactive: 12.7% | –
58 | COc1ccc2nc(N3C(=O)CC(Cc4ccc(C)cc4)C3=O)sc2c1 (centres undefined) | – | inconclusive [inhibitor, full curve, poor fit]
59 | O=S(=O)(O)c1nnc2sc3ccccc3n12 | – | inconclusive [inhibitor, partial curve, poor fit]
60 | Cc1ccc(S(=O)(=O)N2CCN(C(=O)COC(=O)/C=C/c3ccccc3F)CC2)c(C)c1 | – | inconclusive [inhibitor, full curve, poor fit]
61 | Cc1c(NC(=O)N2CCCCCC2)c(=O)n(-c2ccccc2)n1C | – | inconclusive [inhibitor, full curve, poor fit]
62 | COc1ccccc1CNC(=O)c1ccc2c(c1)N(Cc1cccc(C)c1)C(=O)c1ccccc1S2(=O)=O | – | inconclusive [inhibitor, partial curve]
63 | O=C(NCc1cccnc1)NC(C(F)(F)F)C(F)(F)F | – | inconclusive [inhibitor, partial curve, poor fit]
64 | O=C(Cn1nnc2ccccc21)C1CC1 | – | inconclusive [inhibitor, partial curve]
65 | Cc1cccc2sc(NNC(=O)c3ccc4c(c3)OCCO4)nc12 | – | inconclusive [inhibitor, partial curve]
66 | Cc1nn(CC(=O)Nc2cccnc2)c(C)c1[N+](=O)[O-] | – | inconclusive [inhibitor, partial curve]
67 | Cc1ccc(-n2nc3c(c2NC(=O)c2cccs2)CS(=O)(=O)C3)cc1C | inactive: 11.3% | –
68 | C/C(=N\NC(=O)CSCc1ccccc1Cl)c1cccc(NC(=O)c2ccccc2)c1 | inactive: -4.88% | –
69 | COc1ccc(NC(=O)/C(C#N)=C\c2ccc(Br)o2)cc1 | – | inconclusive [inhibitor, full curve, poor fit]
